Data: the supplement of paper PMC3334620
Over roughly 33,000 sequences, “E-score (-0.5 to 0.5)” has its median near -0.053; the highest 2% begin near 0.37. The list shows a part of the results.

The sequences below were run against Hap1 (UniProt P0CE41) (assay: PBM E-score (8-mer binding enrichment) (E-score (-0.5 to 0.5)); higher = stronger / more preferred TF binding; most listed sequences are background and not binding sites). Details: protein concentration: 200 nM; construct: GST-DNA-binding domain.
Sequence of UniProt P0CE41 (P0CE41 whole entry, the tested form may be a part): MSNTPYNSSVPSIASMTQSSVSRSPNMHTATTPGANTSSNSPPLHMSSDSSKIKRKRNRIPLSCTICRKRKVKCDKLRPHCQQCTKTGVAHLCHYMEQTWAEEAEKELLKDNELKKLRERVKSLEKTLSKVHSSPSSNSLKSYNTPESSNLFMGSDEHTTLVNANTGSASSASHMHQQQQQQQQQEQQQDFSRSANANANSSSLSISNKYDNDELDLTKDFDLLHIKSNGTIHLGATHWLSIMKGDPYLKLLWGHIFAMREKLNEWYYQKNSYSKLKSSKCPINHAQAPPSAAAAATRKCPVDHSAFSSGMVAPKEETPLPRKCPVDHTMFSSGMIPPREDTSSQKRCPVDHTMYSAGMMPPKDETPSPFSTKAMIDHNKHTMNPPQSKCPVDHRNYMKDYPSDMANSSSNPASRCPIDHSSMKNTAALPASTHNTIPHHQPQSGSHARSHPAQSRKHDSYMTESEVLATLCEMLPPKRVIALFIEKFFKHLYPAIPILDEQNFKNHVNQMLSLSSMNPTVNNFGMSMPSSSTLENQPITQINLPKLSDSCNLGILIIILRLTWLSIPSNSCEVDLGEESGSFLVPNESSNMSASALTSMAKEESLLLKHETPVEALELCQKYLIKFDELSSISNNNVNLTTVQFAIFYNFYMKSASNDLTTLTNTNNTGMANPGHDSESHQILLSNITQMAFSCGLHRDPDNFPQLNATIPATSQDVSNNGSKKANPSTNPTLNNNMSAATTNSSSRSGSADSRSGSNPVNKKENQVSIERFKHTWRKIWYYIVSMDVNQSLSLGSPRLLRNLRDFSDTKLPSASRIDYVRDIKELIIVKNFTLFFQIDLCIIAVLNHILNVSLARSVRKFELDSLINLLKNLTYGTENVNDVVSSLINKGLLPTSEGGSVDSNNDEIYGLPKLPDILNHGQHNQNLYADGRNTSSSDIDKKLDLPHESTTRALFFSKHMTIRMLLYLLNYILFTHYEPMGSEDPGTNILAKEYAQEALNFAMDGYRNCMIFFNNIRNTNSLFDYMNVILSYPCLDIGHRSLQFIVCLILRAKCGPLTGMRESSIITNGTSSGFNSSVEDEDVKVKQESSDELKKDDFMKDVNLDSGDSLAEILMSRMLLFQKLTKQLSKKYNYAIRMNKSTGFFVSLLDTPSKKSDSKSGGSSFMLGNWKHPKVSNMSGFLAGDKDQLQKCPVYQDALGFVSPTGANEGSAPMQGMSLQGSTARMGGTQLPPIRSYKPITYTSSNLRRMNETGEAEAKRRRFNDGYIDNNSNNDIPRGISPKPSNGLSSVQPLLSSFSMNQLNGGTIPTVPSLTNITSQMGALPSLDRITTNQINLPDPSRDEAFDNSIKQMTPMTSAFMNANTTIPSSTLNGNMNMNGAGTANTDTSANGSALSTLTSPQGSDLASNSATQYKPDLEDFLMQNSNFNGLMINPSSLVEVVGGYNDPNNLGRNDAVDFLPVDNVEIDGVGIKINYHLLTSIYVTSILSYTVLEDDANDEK
In short: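 Each ungapped eight-base word and its reverse complement, pooled, received an E-score from the Universal PBM Analysis Suite. Underlying scans, normalised with masliner, recorded fluorescent anti-GST bound to GST-tagged yeast transcription factors. These were applied at about 100-200 nM to universal all-10-mer Agilent arrays double-stranded by primer extension.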

Sequence | PBM E-score
CTACATCA | 0.0111
TAGTATCA | 0.0451
GAAAGGAA | 0.187
AGGTGATG | -0.225
GCACTGTA | -0.142
CTCTAATA | -0.1
ACCTCGTG | -0.132
AACAGCCA | -0.0921
AAACTGAA | -0.0118
ACGACCGG | 0.292
ACTTATTG | -0.145
AAGGGTTC | -0.121
ATTATGTG | 0.0607
ATGTCGTC | -0.0753
ACTTCGCC | 0.264
CGAGTTCA | -0.134
AAGGATAC | -0.124
GGGCCTAA | -0.0132
CCTTTACA | -0.15
CCACGATA | -0.00906
GCCCTGCA | -0.21
CGGCTGTA | 0.311
CTCCTGAA | 0.0126
AGACGTAA | -0.14
AACCGAAG | 0.226

Sequence | PBM E-score
AAGATACC | 0.0509
GGATAGAA | 0.126
CCTGCGAG | -0.109
GCTAGACA | -0.0458
ACAGGCTA | -0.188
TGATTAAA | -0.0498
ACCGAGAT | 0.287
ATTTTAAG | -0.0463
AAGGGCGT | -0.0867
AGGTAACG | 0.125
CATTTTCG | 0.163
CACTCTCG | 0.173
CGCCCAAG | -0.213
TCGAATAA | -0.0975
CCAGACAC | -0.313
CTCGGTCC | 0.35
CGGTTACA | 0.303
CGTGATAG | -0.156
CATTACCC | 0.06
CATCGCCC | 0.128
CTAAACTA | -0.17
CAGGATAG | -0.103
AGGTGCCC | -0.105
CAAACTAG | -0.315
ATGAACAT | -0.149

Sequence | PBM E-score
GAACAGTC | -0.105
ATCTTGGC | -0.164
AGAAAGAG | -0.192
CCCGTTTC | 0.19
ATGTGTGA | -0.0479
ATCTTTCC | 0.131
GATACGTA | -0.0228
AAGTAATC | 0.0821
CCATGCCA | -0.139
AGTGAAAG | -0.184
CAAGGTCA | -0.214
ATTCTCGC | -0.173
AGGAGCTG | -0.0348
AAGGGCGA | 0.043
TCCAGGGA | -0.372
CACACTCC | -0.104
ACAGGGCG | -0.00027
ATCCCGTG | 0.199
AACATATC | 0.192
CGGGAGAC | 0.216
GCTCGGGA | 0.286
ATCCATTG | -0.138
GGCATGGA | 0.0822
AGCGCCAG | -0.0224
CTGAATGC | -0.126

Sequence | PBM E-score
ACTCAGGC | -0.122
CCTGTCAA | -0.202
AGCACCCT | -0.214
GTTATGTA | 0.0817
GTGTTCTA | -0.0276
ACGGCGTA | -0.148
ATTTGAGA | -0.134
AAGGAACC | 0.159
AAAAGTAT | -0.0239
AATCAACC | -0.0544
AGAAGTGC | -0.0776
AGCAAGCT | -0.382
CTAAGAGC | -0.0334
AACCTCGA | -0.0671
ACTCACCA | -0.109
ACGCTGAG | -0.144
AAAATACC | 0.138
AAGACCCC | 0.0634
TAATGGAA | 0.0291
CGAATCAC | 0.123
ATCAGTTA | -0.0403
AGGTGGAT | -0.159
ACGATGAT | -0.164
CTTTTCTA | -0.242
CTTCTAAA | -0.113

Sequence | PBM E-score
TAGACTGA | -0.123
CGATCCAG | -0.0468
GTTCGGCA | 0.125
TCCGCACA | 0.139
CGTGGCGA | 0.00589
ATAAAAAA | 0.0729
AACGTTAG | 0.0118
GGGTACTA | 0.0263
CACTCCTA | -0.0848
CTAAATTC | 0.0663
CGGTTCAC | 0
GACTAAGA | 0.0555
AAGACGTA | -0.164
AAGCGGAT | 0.245
ATGAGGTA | -0.143
CGGAAGCC | 0.199
GCAACATA | -0.139
AGTGGCGA | 0.0958
GTGTCTGA | -0.212
GCGAAGAA | -0.0486
GTGTCCTA | -0.0863
ATTCCACG | 0.00865
TGACACCA | -0.258
GCCTAAAC | -0.165
ATGGCCGA | 0.359

Sequence | PBM E-score
GGCGGCAA | 0.114
TCGGGTAA | 0.124
CGGCCTGC | 0.0613
AGCGCGTG | -0.0591
GCGGAGAC | 0.348
AGTAGTGC | 0.078
AACCGCGA | 0.196
AGGGCGAC | -0.0507
GGGATGAC | 0.111
CGTCATAG | -0.0979
GAACATAA | 0.0853
TCACCGCA | 0.0366
CCAGCTGG | -0.112
AAGCCGAC | 0.298
AGGCCCAC | -0.318
AACTTGGA | -0.0991
CCACCTCC | -0.00752
ACTTCCGA | 0.31
CGTTCAGC | -0.12
GAATACGC | 0.0229
ACCGTCAA | -0.0051
ACGATGCA | -0.108
ATAGTAGA | -0.0574
ACTGTTGA | -0.17
AGTATCTG | -0.118

Sequence | PBM E-score
TATATGAA | -0.0659
GAGGTATA | -0.122
ATGTTCAA | 0.123
CGTGGTTA | -0.251
CCGCCTTA | -0.0179
CCGCACGG | 0.191
CAGGTTGG | -0.115
ACAATGCA | -0.0452
CGAAAGCC | 0.15
AGTACTAA | -0.0628
AAGTTCCT | -0.0383
AAGACACG | 0.0021
AGTCCGTC | 0.325
AGATTCCA | -0.0282
GCAGAATA | 0.0458
CAACTCAC | -0.213
ACGAGCCC | -0.133
AGGATATG | 0.0112
ATTCTATG | -0.155
ATACCGAA | 0.296
TGAACAAA | 0.0224
ATACGGGC | 0.168
CAGTCTGG | -0.305
AGCGCGGA | 0.223
CTTTGCCC | -0.168

Sequence | PBM E-score
ACGCACTA | -0.157
CCCCTGAA | -0.166
ATGTATGG | -0.238
AGACCCCC | -0.0514
ATCTATTA | -0.0002
CATCCAAG | -0.197
GCTAGTTA | -0.113
AGCACGAT | -0.101
CCTTCAAG | -0.253
AAGGGTAG | -0.173
AAGTTCAT | 0.0764
CACGTTGC | -0.165
AGGGAGTA | -0.277
GGACCCCC | 0.0704
GAGCGCGC | 0.174
AGGCGGCC | 0.0302
AGGTCGAC | -0.113
ACTTGCAC | -0.0854
AGACCACC | -0.246
AAACGTAT | -0.0146
ACTGGCAA | -0.078
ACCGTAAA | 0.0865
AAATGTGG | 0.038
GCGCAAAA | -0.00131
TCTGGCCA | -0.255

Sequence | PBM E-score
ATGGGGCG | -0.0621
ATCGACGC | -0.0158
AGAACTGA | -0.269
CCTTAGCA | -0.0286
GCGATACC | 0.192
GGCCAGAC | 0.0273
GGATTAAA | 0.267
GCGGTTGA | 0.12
ATTTAGTA | 0.102
TATACGAA | -0.02
GGCCAACC | 0.123
ACACTCCT | -0.112
AATGATAA | 0.0423
AATTCCAC | 0.192
GCGCCCGC | 0.0873
GCGATCCC | -0.0261
TCAATTGA | -0.079
CATCGGTC | 0.278
CCAGCGCG | 0.0332
GCAAGAAC | -0.0934
CAGAGATG | -0.157
CATCTTCA | -0.236
CCTGACTC | -0.122
GCCCATCA | -0.13
AGACCTTC | -0.136

Sequence | PBM E-score
AACTGAAA | -0.042
CCCAAGAC | -0.0714
CTCTCGCA | -0.179
AAATATGG | -0.156
CTTGGGCC | 0.0626
ATCAAGGG | -0.0602
CAGGATTA | -0.0384
GTATCAAC | 0.0629
CGAGCACC | 0.0226
ACGACGAT | 0.1
TACGCATA | -0.0325
CTTGTCGC | 0.0871
TATCGAAA | 0.0242
ACTGAGAT | -0.257
AACTAAAG | -0.114
AGGGAACA | -0.122
CGGCCGGA | 0.436
TCTAACCA | -0.115
CCTACAGC | 0.0103
AAACATTA | -0.187
CCGCTTAG | 0.0499
CCCACAGG | -0.119
AAGTCAAA | -0.159
AAGCACGG | 0.0605
TGAGGACA | -0.297

Sequence | PBM E-score
GCTCGCAC | 0.112
CCCTTGTA | -0.115
TAGGCACA | -0.204
GTGATTTA | 0.0429
TCCGGGAA | 0.376
CAGAGATC | -0.108
AATTTTTG | -0.144
AATCGTGG | -0.179
CCCTCACG | -0.262
GCATGCCC | 0.0863
AAAAGGAG | -0.0328
GGGTTGAC | -0.187
AGACGACG | -0.011
ATCCAGTA | 0.00689
CAGAAATA | -0.0924
AACGGCAC | 0.0718
CTCCGAAG | 0.401
GAGCTCGA | -0.1
ATGCCCTC | -0.0254
CTACAGAA | -0.23
ATCATCGC | 0.0926
CCTTTGTC | -0.0255
AACGCTTC | -0.0716
AACCACCA | -0.0905
CTAAAGAA | -0.0447

Sequence | PBM E-score
ACCGCGGG | 0.252
AGCCGCAT | -0.0279
CTCTAGAC | -0.291
ACATACTA | -0.119
ATGAAAAG | -0.221
CACCATTA | 0.0208
ACTGCTTA | -0.199
CATCTCGG | 0.344
ATATGACG | 0.0575
ACCACAGA | -0.112
AAATCGTC | 0.0943
AGAGCCAG | -0.363
ACGACAAC | 0.00097
ATGTGAAC | -0.117
AGCGCTTA | 0.136
TAAATTAA | 0.0905
ATTGCACC | -0.0142
CCTTGATA | -0.214
ATATTAAT | 0.102
ATCTAGCA | -0.136
GGCGCTTA | 0.119
ATATCTGC | 0.105
ACGTCCCT | -0.295
ACGATAAA | 0.0913
AGAGGCTG | -0.301

Sequence | PBM E-score
AAAGTAGG | -0.00922
GTTGACTA | -0.0897
ACATGTAA | -0.0805
AACTCTCT | -0.133
GCCTTGGA | -0.181
ACTGCCCG | 0.0132
CTCAAACA | -0.0418
TAGGCCCA | -0.229
ACCACATC | -0.00509
ATGTTGAG | -0.113
AACTTTGG | -0.171
GCAATTCC | 0.127
AACAGGTG | -0.158
GGGGTACA | 0.163
ACAATACC | 0.0279
CCTCAGAC | -0.00317
CCAAATCG | 0.00406
GCACCCCC | -0.0617
ACCGGGTG | 0.327
ACCTGACG | -0.229
ACCGTGAT | 0.0661
GGGGAACC | -0.144
TGGTCACA | -0.0913
CTGACCAA | -0.132
AGCAACCT | -0.157

Sequence | PBM E-score
AGCAGTAC | -0.2
ACCACGTC | -0.116
CTCTCGTA | -0.0664
AGCCCCGC | 0.104
AAGTGGCA | -0.233
GATGCCCC | -0.0948
CTGCCTCA | -0.224
GATTAGCA | -0.057
ATTGACCA | -0.0524
TCGCAACA | -0.2
CGCTAATA | 0.247
GTTAAACA | -0.0588
GCAATGGA | -0.125
ACTACCGG | 0.305
AAACAAGT | -0.125
CTGGGGCC | -0.0665
GATCACGA | -0.241
CGCGTAGC | 0.0961
CCCTACGG | 0.0542
